# The other results are listed elsewhere or left out. The full chains were built here from the parent and the listed change. Values near 0.05 are background.
# B1: TEV protease; numbered along this chain (parent)
# chain: MGESLFKGPRDYNPISSSICHLTNESDGHTTSLYGIGFGPFIITNKHLFRRNNGTLVVQSLHGVFKVKDTTTLQQHLVDGRDMIIIRMPKDFPPFPQKLKFREPQREERICLVTTNFQTKSMSSMVSDTSCTFPSGDGIFWKHWIQTKDGQCGSPLVSTRDGFIVGIHSASNFTNTNNYFTSVPKNFMELLTNQEAQQWVSGWRLNADSVLWGGHKVFMVKPEEPFQPVKEATQL
# Variants of: B1
# Assay: raw area under fraction-flipped curve 0-4 h after induction (AUC4h, not background-subtracted), DNA-recorder readout of cleavage of the substrate (dimensionless); higher = more cleavage of the substrate by the protease variant
# Conditions: temperature: 34 °C; time window: 0-4 h after rhamnose induction
# Method: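 In vivo DNA recorder in E. coli TOP10(DE3) ΔrhaA at 34 °C. Each TEVp single-site mutant (parent TEVp 0) is paired with a single-site variant of the 7-mer TEVs (canonical ENLYFQ|S). The substrate sits between flexible linkers in a Bxb1-sfGFP-TEVs-SsrA fusion, so cleavage stabilises Bxb1 and speeds flipping of a recombination array, read by NGS. The value is the raw area under the fraction-flipped curve over 0-4 h after rhamnose induction (AUC4h), with ≥20 reads per time point. It is not background-subtracted; inactive controls average about 0.047.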
# 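Further: Bxb1 expression induced with 0.2% (w/v) L-rhamnose at OD600 near 0.5, cultures sampled hourly, flipped fraction per protease–substrate barcode pair counted by paired-end Illumina sequencing.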
Variant,area with substrate ENLYDQS,area with substrate ENLYEQS,area with substrate ENLYGQS,area with substrate ENLYHQS,area with substrate ENLYIQS,area with substrate ENLYLQS,area with substrate ENLYMQS,area with substrate ENLYTQS,area with substrate ENLYWQS,area with substrate ENLYYQS,area with substrate ENLYKQS,area with substrate ENLYNQS,area with substrate ENLYPQS,area with substrate ENLYRQS,area with substrate ENLYQQS,area with substrate ENLYVQS,area with substrate ENLYSQS
MGESLFKGPRDYNPISSSICHLTNESDGHTTSLYGIGFGPFIITNKHLFRRNNGTLVVQSLHGVFKVKDTTTLQQHLVDGRDMIIIRMPKDFPPFPQKLKFREPQREERICLVTTNFQTKSMLSMVSDTSCTFPSGDGIFWKHWIQTKDGQCGSPLVSTRDGFIVGIHSASNFTNTNNYFTSVPKNFMELLTNQEAQQWVSGWRLNADSVLWGGHKVFMVKPEEPFQPVKEATQL [S123L],0.047,0.09,0.0584,0.0693,0.11,0.0871,0.0826,0.0774,0.0806,0.0694,–,–,–,–,–,–,–
MGESLFKGPRDYNPISSSICHLTNESDGHTTSLYGIGFGPFIITNKHLFRRNNGTLVVQSLHGVFKVKDTTTLQQHLVDGRDMIIIRMPKDFPPFPQKLKFREPQREERICLVTTNFQTKSMSSMVSDRSCTFPSGDGIFWKHWIQTKDGQCGSPLVSTRDGFIVGIHSASNFTNTNNYFTSVPKNFMELLTNQEAQQWVSGWRLNADSVLWGGHKVFMVKPEEPFQPVKEATQL [T129R],0.0683,0.0728,0.0557,0.0678,–,–,0.0893,–,0.0736,–,0.0569,0.0528,0.0748,0.0799,–,–,–
MGESLFKGPRDYNPISSSICHLTNESDGHTTSLYGIGFGPFIITNKHLFRRNNGTLVVQSLHGVFKVKDTTTLQQHLVDGRDMIIIRMPKDFPPFPQKLKFREPQREERICLVTTNFQTKSMSSMVSDASCTFPSGDGIFWKHWIQTKDGQCGSPLVSTRDGFIVGIHSASNFTNTNNYFTSVPKNFMELLTNQEAQQWVSGWRLNADSVLWGGHKVFMVKPEEPFQPVKEATQL [T129A],0.0428,0.073,0.0698,0.0358,–,–,0.0832,–,0.0751,–,0.0338,0.0726,–,0.0481,0.0558,0.119,–
MGESLFKGPRDYNPISSSICHLTNESDGHTTSLYGIGFGPFIITNKHLFRRNNGTLVVQSLHGVFKVKDTTTLQQHLVDGRDMIIIRMPKDFPPFPQKLKFREPQREERICLVTTNFQTKSMSSMVSDTSCTFPSGDGIFWKHWIYTKDGQCGSPLVSTRDGFIVGIHSASNFTNTNNYFTSVPKNFMELLTNQEAQQWVSGWRLNADSVLWGGHKVFMVKPEEPFQPVKEATQL [Q146Y],0.0685,0.0683,0.0697,–,–,0.073,0.107,–,0.0849,–,0.0716,0.0628,–,0.0497,0.071,0.142,–
MGESLFKGPRDYNPISSSICHLTNESDGHTTSLYGIGFGPFIITNKHLFRRNNGTLVVQSLHGVFKVKDTTTLQQHLVDGRDMIIIRMPKDFPPFPQKLKFREPQREERICLVTTNFQTKSMSSMVSDTSCTFPEGDGIFWKHWIQTKDGQCGSPLVSTRDGFIVGIHSASNFTNTNNYFTSVPKNFMELLTNQEAQQWVSGWRLNADSVLWGGHKVFMVKPEEPFQPVKEATQL [S135E],0.0657,–,0.0743,0.0546,–,–,–,–,0.0809,0.0619,–,0.0693,0.0455,–,–,0.0817,–
MGESLFKGPRDYNPISSSICHLTNESDGHTTSLYGIGFGPFIITNKHLFRRNNGTLVVQSLHGVFKVKDTTTLQQHLVDGRDMIIIRMPKDFPPFPQKLKFREPQREERICLVTTNFQTKSMSSMVSDTSCTFPMGDGIFWKHWIQTKDGQCGSPLVSTRDGFIVGIHSASNFTNTNNYFTSVPKNFMELLTNQEAQQWVSGWRLNADSVLWGGHKVFMVKPEEPFQPVKEATQL [S135M],0.0422,0.0528,0.0561,0.0563,0.0716,–,0.0677,0.0501,0.0623,0.0499,–,0.0554,0.0614,0.0688,0.0541,–,0.0599
MGESLFKGPRDYNPISSSICHLTNESDGHTTSLYGIGFGPFIITNKHLFRRNNGTLVVQSLHGVFKVKDTTTLQQHLVDGRDMIIIRMPKDFPPFPQKLKFREPQREERICLVTTNFQTKSMSSMVSDTSCTFPSGDGIFWKHWIQTKEGQCGSPLVSTRDGFIVGIHSASNFTNTNNYFTSVPKNFMELLTNQEAQQWVSGWRLNADSVLWGGHKVFMVKPEEPFQPVKEATQL [D149E],0.066,0.0699,0.0689,0.0576,0.111,0.0878,–,–,0.0808,–,0.0521,0.0664,0.0861,–,–,0.0743,0.0667
MGESLFKGPRDYNPISSSICHLTNESDGHTTSLYGIGFGPFIITNKHLFRRNNGTLVVQSLHGVFKVKDTTTLQQHLVDGRDMIIIRMPKDFPPFPQKLKFREPQREERICLVTTNFQTKSMSSMVSDTSCTFPSGDGIFWKEWIQTKDGQCGSPLVSTRDGFIVGIHSASNFTNTNNYFTSVPKNFMELLTNQEAQQWVSGWRLNADSVLWGGHKVFMVKPEEPFQPVKEATQL [H143E],0.0622,0.0692,0.0477,0.0537,–,–,0.0536,–,0.0569,0.0576,0.0619,0.0596,–,0.0576,–,–,0.0716
MGESLFKGPRDYNPISSSICHLTNESDGHTTSLYGIGFGPFIITNKHLFRRNNGTLVVQSLHGVFKVKDTTTLQQHLVDGRDMIIIRMPKDFPPFPQKLKFREPQREERICLVTTNFQTKSMSSMVSDTSCTFPSGDGIFWKHEIQTKDGQCGSPLVSTRDGFIVGIHSASNFTNTNNYFTSVPKNFMELLTNQEAQQWVSGWRLNADSVLWGGHKVFMVKPEEPFQPVKEATQL [W144E],0.075,0.13,0.0633,0.0799,0.111,0.0782,0.0718,–,0.0722,–,0.0651,0.0655,0.0679,0.063,0.0629,0.0832,0.0994
MGESLFKGPRDYNPISSSICHLTNESDGHTTSLYGIGFGPFIITNKHLFRRNNGTLVVQSLHGVFKVKDTTTLQQHLVDGRDMIIIRMPKDFPPFPQKLKFREPQREERICLVTTNFQTKSMSSMVSDTSCTFASGDGIFWKHWIQTKDGQCGSPLVSTRDGFIVGIHSASNFTNTNNYFTSVPKNFMELLTNQEAQQWVSGWRLNADSVLWGGHKVFMVKPEEPFQPVKEATQL [P134A],0.0363,–,0.033,–,–,–,0.0852,–,–,–,0.0559,–,–,–,0.07,–,0.0696

# Reference: the supplement of paper PMC12217912
